Sequences with one replicate were seen in a single cluster, so their values are uncertain.
The sequences below were run on ATP (assay: switch fluorescence ratio, 500 uM ATP over buffer (Cy3 cluster intensity, sum of 5 cycles each) (fold (ratio)); higher = stronger signal-on switching upon ATP binding; sequences stand for … in TCGTCGGCAGCGTCAGATGTGTATAAGAGACAGTTTTTTTTTTTTTTTTTTTTTTTTT…TC). Settings: aptamer strand: ATP DNA aptamer (quencher-CACCTGGGGGAGTATTGCGGAGGAAGG + anchor), 100 nM annealed; ATP concentration: 500 uM; one replicate.
How it was run: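 The fluorescence ratio divides summed target-cycle Cy3 intensity by summed buffer-cycle Cy3 intensity for each cluster and is averaged per switch-domain sequence. Cy3-labelled switching-strand clusters on a modified Illumina MiSeq flow-cell were annealed to 100 nM quencher-labelled ATP aptamer, then imaged in selection buffer and again after 15 min with 500 uM ATP at 22 °C. Five such cycles were run, with NaOH stripping and re-annealing between them, and clusters outside 100-1000 RFU were excluded.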
CGGGACACCA was tested, and the switch fluorescence ratio was 1.02.
Work on CGGGACACCC yielded a switch fluorescence ratio of 1.03.
CGGGACTAGC was tested, and the switch fluorescence ratio was 0.963.
Sequence CGGGAGCTAG has a switch fluorescence ratio of 1.03.
Sequence CGGGATGGGA has a switch fluorescence ratio of 1.03.
CGGGCACTA gave a switch fluorescence ratio of 2.86.
Work on CGGGCCAACG yielded a switch fluorescence ratio of 0.948.
In the case of CGGGCCAAG, the switch fluorescence ratio is reported as 0.919.
Work on CGGGCCCTGC yielded a switch fluorescence ratio of 0.99.
Work on CGGGCCTGGC yielded a switch fluorescence ratio of 0.892.
Work on CGGGCGTCTT yielded a switch fluorescence ratio of 1.06.
For CGGGCTTTC, the switch fluorescence ratio was 1.05.
Sequence CGGGGACCCG has a switch fluorescence ratio of 1.01.
With CGGGGACTCT the switch fluorescence ratio was 1.02.
With CGGGGATAGC the switch fluorescence ratio was 1.01.
With CGGGGCAGGA the switch fluorescence ratio was 0.999.
For CGGGGCATTT, the switch fluorescence ratio was 0.962.
CGGGGCCCCA showed a switch fluorescence ratio of 1.04.
For CGGGGCCGAC, the switch fluorescence ratio was 0.975.
CGGGGCTTAC gave a switch fluorescence ratio of 1.79.
In the case of CGGGGGATAA, the switch fluorescence ratio is reported as 0.995.
Work on CGGGGGCCGC yielded a switch fluorescence ratio of 0.961.
For CGGGGTAGCA, the switch fluorescence ratio was 1.11.
For CGGGGTATA, the switch fluorescence ratio was 0.993.
CGGGGTCGT gave a switch fluorescence ratio of 1.03.
CGGGGTTAA was tested, and the switch fluorescence ratio was 0.974.
CGGGTAGATG showed a switch fluorescence ratio of 1.06.
With CGGGTATCTT the switch fluorescence ratio was 0.998.
CGGGTATTT showed a switch fluorescence ratio of 0.969.
Work on CGGGTCGG yielded a switch fluorescence ratio of 0.967.
CGGGTCTCTG showed a switch fluorescence ratio of 0.97.
CGGGTGGTAA gave a switch fluorescence ratio of 1.
CGGGTTACTG showed a switch fluorescence ratio of 0.984.
With CGGGTTATCG the switch fluorescence ratio was 0.986.
CGGGTTCTCT showed a switch fluorescence ratio of 0.996.
For CGGGTTGAA, the switch fluorescence ratio was 0.998.
Work on CGGGTTGGCC yielded a switch fluorescence ratio of 1.
In the case of CGGTAAATTG, the switch fluorescence ratio is reported as 0.997.
CGGTAACTTT showed a switch fluorescence ratio of 1.02.
CGGTAAGTAA gave a switch fluorescence ratio of 1.01.
Sequence CGGTAATCC has a switch fluorescence ratio of 1.08.
For CGGTACCGGA, the switch fluorescence ratio was 0.982.
For CGGTACGACA, the switch fluorescence ratio was 0.998.
For CGGTACGGTC, the switch fluorescence ratio was 0.86.
In the case of CGGTACTGCG, the switch fluorescence ratio is reported as 1.05.
Sequence CGGTATAGC has a switch fluorescence ratio of 1.17.
CGGTATCCCC gave a switch fluorescence ratio of 0.94.
CGGTATGAAC was tested, and the switch fluorescence ratio was 1.01.
Sequence CGGTATGCCA has a switch fluorescence ratio of 1.01.
Sequence CGGTCACGAT has a switch fluorescence ratio of 1.03.
In the case of CGGTCACGTG, the switch fluorescence ratio is reported as 1.02.
CGGTCCGGCC showed a switch fluorescence ratio of 1.02.
CGGTCGAATG showed a switch fluorescence ratio of 0.985.
Sequence CGGTCGATGA has a switch fluorescence ratio of 0.955.
Work on CGGTCGTTCG yielded a switch fluorescence ratio of 1.03.
Work on CGGTCTCTGT yielded a switch fluorescence ratio of 1.03.
Sequence CGGTCTGTGC has a switch fluorescence ratio of 1.01.
Work on CGGTGAACGG yielded a switch fluorescence ratio of 0.973.
CGGTGAGGCC was tested, and the switch fluorescence ratio was 0.995.
CGGTGAGTAT showed a switch fluorescence ratio of 0.996.
With CGGTGCGGGG the switch fluorescence ratio was 1.01.
With CGGTGCGTGG the switch fluorescence ratio was 1.02.
Sequence CGGTGCTCTC has a switch fluorescence ratio of 1.02.
With CGGTGGCAGT the switch fluorescence ratio was 1.
Sequence CGGTGGGGTC has a switch fluorescence ratio of 1.06.
CGGTGTAGGC showed a switch fluorescence ratio of 1.04.
For CGGTGTGATG, the switch fluorescence ratio was 1.03.
For CGGTTAAAGA, the switch fluorescence ratio was 1.
For CGGTTAAATG, the switch fluorescence ratio was 1.04.
Sequence CGGTTAGTCG has a switch fluorescence ratio of 0.969.
In the case of CGGTTATGGG, the switch fluorescence ratio is reported as 0.988.
For CGGTTCCAGT, the switch fluorescence ratio was 1.05.
In the case of CGGTTCGCGC, the switch fluorescence ratio is reported as 1.
For CGGTTCGTGT, the switch fluorescence ratio was 0.989.
With CGGTTGGATG the switch fluorescence ratio was 0.96.
For CGGTTTAGTG, the switch fluorescence ratio was 0.955.
In the case of CGGTTTGATG, the switch fluorescence ratio is reported as 0.983.
Sequence CGTAACAGGT has a switch fluorescence ratio of 1.03.
Sequence CGTAAGAGCG has a switch fluorescence ratio of 0.99.
CGTAAGAGTT showed a switch fluorescence ratio of 0.985.
CGTAAGATGG gave a switch fluorescence ratio of 1.03.
CGTAAGTCAG was tested, and the switch fluorescence ratio was 1.03.
CGTAATACAG was tested, and the switch fluorescence ratio was 1.21.
CGTAATCGTA gave a switch fluorescence ratio of 1.02.
In the case of CGTAATGCGG, the switch fluorescence ratio is reported as 1.05.
CGTACAGACT showed a switch fluorescence ratio of 1.04.
Sequence CGTACAGTTG has a switch fluorescence ratio of 0.952.
Work on CGTACCACGA yielded a switch fluorescence ratio of 1.
Work on CGTACCAGC yielded a switch fluorescence ratio of 1.01.
With CGTACTTTT the switch fluorescence ratio was 1.02.
CGTAGACTGA showed a switch fluorescence ratio of 0.986.
For CGTAGACTGG, the switch fluorescence ratio was 1.
Sequence CGTAGAGCT has a switch fluorescence ratio of 0.977.
Work on CGTAGAGCTT yielded a switch fluorescence ratio of 1.05.
In the case of CGTAGCCCGC, the switch fluorescence ratio is reported as 1.15.
With CGTAGCCCTG the switch fluorescence ratio was 1.03.
CGTAGCGGAC gave a switch fluorescence ratio of 4.4.
Sequence CGTAGCTCAG has a switch fluorescence ratio of 1.1.
With CGTAGGCCC the switch fluorescence ratio was 1.04.
CGTAGGCTAC gave a switch fluorescence ratio of 1.64.
With CGTAGTCGCC the switch fluorescence ratio was 0.982.
For CGTAGTGTGG, the switch fluorescence ratio was 0.973.
With CGTAGTTACG the switch fluorescence ratio was 1.04.
With CGTAGTTCG the switch fluorescence ratio was 1.03.
Work on CGTATATTCG yielded a switch fluorescence ratio of 1.07.
For CGTATGACGG, the switch fluorescence ratio was 0.988.
In the case of CGTATGAGAG, the switch fluorescence ratio is reported as 0.949.
With CGTATGTTAA the switch fluorescence ratio was 1.02.
In the case of CGTATGTTTA, the switch fluorescence ratio is reported as 0.992.
With CGTATTAATG the switch fluorescence ratio was 1.07.
CGTATTAGTC was tested, and the switch fluorescence ratio was 1.03.
CGTATTTAGG was tested, and the switch fluorescence ratio was 1.02.
In the case of CGTATTTGTT, the switch fluorescence ratio is reported as 1.02.
CGTCAAGTTA showed a switch fluorescence ratio of 0.987.
Sequence CGTCACACAA has a switch fluorescence ratio of 1.2.
CGTCACTTTT showed a switch fluorescence ratio of 0.987.
CGTCAGTGC showed a switch fluorescence ratio of 2.04.
With CGTCGATCCG the switch fluorescence ratio was 0.915.
Sequence CGTCGCATCG has a switch fluorescence ratio of 1.01.
CGTCGCTCTA showed a switch fluorescence ratio of 1.01.
With CGTCGGATAG the switch fluorescence ratio was 1.05.
In the case of CGTCGGCTAG, the switch fluorescence ratio is reported as 1.04.
In the case of CGTCGGTACA, the switch fluorescence ratio is reported as 1.02.
CGTCGGTCCT showed a switch fluorescence ratio of 0.978.
CGTCGTCTGG gave a switch fluorescence ratio of 1.01.
In the case of CGTCGTGAAA, the switch fluorescence ratio is reported as 1.04.
CGTCTAAATT showed a switch fluorescence ratio of 1.03.
CGTCTAACAT was tested, and the switch fluorescence ratio was 1.
Sequence CGTCTACCGA has a switch fluorescence ratio of 0.97.
With CGTCTCACGC the switch fluorescence ratio was 1.02.
For CGTCTCGAAG, the switch fluorescence ratio was 0.967.
For CGTCTGTTAT, the switch fluorescence ratio was 1.01.
CGTCTTAGGC showed a switch fluorescence ratio of 1.12.
CGTCTTCGTA was tested, and the switch fluorescence ratio was 0.957.
For CGTCTTGTTT, the switch fluorescence ratio was 0.991.
CGTGAAGCTC was tested, and the switch fluorescence ratio was 1.07.
CGTGACGAGA showed a switch fluorescence ratio of 1.07.
In the case of CGTGACGCTC, the switch fluorescence ratio is reported as 1.04.
CGTGACGGA was tested, and the switch fluorescence ratio was 0.978.
Work on CGTGAGTGGA yielded a switch fluorescence ratio of 1.06.
CGTGATATGC gave a switch fluorescence ratio of 1.24.
Work on CGTGATTA yielded a switch fluorescence ratio of 0.994.
In the case of CGTGCAAACT, the switch fluorescence ratio is reported as 1.18.
Work on CGTGCAGGAT yielded a switch fluorescence ratio of 0.996.
CGTGCCGGTT was tested, and the switch fluorescence ratio was 1.08.
For CGTGCCTGGA, the switch fluorescence ratio was 1.01.
CGTGCGACAA gave a switch fluorescence ratio of 1.46.
CGTGCGCAGA gave a switch fluorescence ratio of 1.39.
CGTGCGGGCG gave a switch fluorescence ratio of 0.942.
CGTGCTAAAA showed a switch fluorescence ratio of 0.972.
Sequence CGTGCTAC has a switch fluorescence ratio of 1.43.
CGTGCTCTAG gave a switch fluorescence ratio of 1.01.
Work on CGTGGAAGAA yielded a switch fluorescence ratio of 0.981.
CGTGGAAGAG was tested, and the switch fluorescence ratio was 1.01.
With CGTGGATGGA the switch fluorescence ratio was 0.974.
Sequence CGTGGCGACC has a switch fluorescence ratio of 1.01.
CGTGGCTTAG gave a switch fluorescence ratio of 0.957.
CGTGGGGGAA gave a switch fluorescence ratio of 0.992.
For CGTGGGTCTG, the switch fluorescence ratio was 0.996.
CGTGGTATGC showed a switch fluorescence ratio of 1.04.
CGTGGTTGGC was tested, and the switch fluorescence ratio was 0.879.
In the case of CGTGTAATGA, the switch fluorescence ratio is reported as 0.987.
Work on CGTGTAGCGT yielded a switch fluorescence ratio of 0.991.
CGTGTAGGG was tested, and the switch fluorescence ratio was 0.99.
Sequence CGTGTAGGGT has a switch fluorescence ratio of 1.07.
For CGTGTATCG, the switch fluorescence ratio was 0.963.
Sequence CGTGTCGAAA has a switch fluorescence ratio of 1.02.
For CGTGTGATGA, the switch fluorescence ratio was 1.07.
With CGTGTGCATC the switch fluorescence ratio was 1.06.
Sequence CGTGTGCTGC has a switch fluorescence ratio of 0.958.
With CGTGTGTAAA the switch fluorescence ratio was 1.06.
With CGTGTGTAG the switch fluorescence ratio was 1.03.
For CGTGTTCCA, the switch fluorescence ratio was 1.02.
With CGTGTTGAA the switch fluorescence ratio was 0.935.
CGTTAAATAC gave a switch fluorescence ratio of 1.96.
CGTTAAGGGG showed a switch fluorescence ratio of 1.01.
Sequence CGTTACGGC has a switch fluorescence ratio of 0.989.
Work on CGTTAGATTT yielded a switch fluorescence ratio of 1.01.
In the case of CGTTAGGAA, the switch fluorescence ratio is reported as 1.04.
CGTTCAAAAA gave a switch fluorescence ratio of 0.918.
In the case of CGTTCAGGTG, the switch fluorescence ratio is reported as 2.26.
For CGTTCGACCG, the switch fluorescence ratio was 1.01.
In the case of CGTTCGCCCT, the switch fluorescence ratio is reported as 1.28.
CGTTCGCGGT showed a switch fluorescence ratio of 1.46.
With CGTTCGTGC the switch fluorescence ratio was 1.09.
CGTTCTCATC showed a switch fluorescence ratio of 0.986.
CGTTGCTAGG showed a switch fluorescence ratio of 0.999.
With CGTTGGACTT the switch fluorescence ratio was 0.996.
In the case of CGTTGGCAAG, the switch fluorescence ratio is reported as 0.988.
In the case of CGTTGGCAGG, the switch fluorescence ratio is reported as 0.976.
With CGTTGTAGCT the switch fluorescence ratio was 1.01.
In the case of CGTTGTTGAG, the switch fluorescence ratio is reported as 0.998.
In the case of CGTTTCACCC, the switch fluorescence ratio is reported as 1.02.
Work on CGTTTCCGGA yielded a switch fluorescence ratio of 0.896.
Work on CGTTTCGTTA yielded a switch fluorescence ratio of 0.972.
Work on CGTTTGAGGC yielded a switch fluorescence ratio of 1.03.
CGTTTTGTAT was tested, and the switch fluorescence ratio was 0.999.
CTAAAAGTCC showed a switch fluorescence ratio of 1.01.
CTAAAATATT showed a switch fluorescence ratio of 0.999.
Work on CTAAACGTTG yielded a switch fluorescence ratio of 0.966.
In the case of CTAAACTCAT, the switch fluorescence ratio is reported as 1.03.

— the supplement of paper PMC10126150
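Further: ATP exposure 15 min at 22 °C before imaging.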
